# Measured values taken from article PMC4336329 (PLoS ONE, 2015).
# Out of some 310,000 compounds screened, about 2,200 (0.71%) showed an effect of 50% or more. Effects have a minus sign here. This is one part of the list.
# Biological target: human ether-à-go-go-related gene (hERG) potassium channel (human, UniProt Q12809)
# Assay: primary screen, population patch clamp on CHO cells stably expressing hERG
# Chain of human ether-à-go-go-related gene (hERG) potassium channel (Q12809 whole entry, looked up): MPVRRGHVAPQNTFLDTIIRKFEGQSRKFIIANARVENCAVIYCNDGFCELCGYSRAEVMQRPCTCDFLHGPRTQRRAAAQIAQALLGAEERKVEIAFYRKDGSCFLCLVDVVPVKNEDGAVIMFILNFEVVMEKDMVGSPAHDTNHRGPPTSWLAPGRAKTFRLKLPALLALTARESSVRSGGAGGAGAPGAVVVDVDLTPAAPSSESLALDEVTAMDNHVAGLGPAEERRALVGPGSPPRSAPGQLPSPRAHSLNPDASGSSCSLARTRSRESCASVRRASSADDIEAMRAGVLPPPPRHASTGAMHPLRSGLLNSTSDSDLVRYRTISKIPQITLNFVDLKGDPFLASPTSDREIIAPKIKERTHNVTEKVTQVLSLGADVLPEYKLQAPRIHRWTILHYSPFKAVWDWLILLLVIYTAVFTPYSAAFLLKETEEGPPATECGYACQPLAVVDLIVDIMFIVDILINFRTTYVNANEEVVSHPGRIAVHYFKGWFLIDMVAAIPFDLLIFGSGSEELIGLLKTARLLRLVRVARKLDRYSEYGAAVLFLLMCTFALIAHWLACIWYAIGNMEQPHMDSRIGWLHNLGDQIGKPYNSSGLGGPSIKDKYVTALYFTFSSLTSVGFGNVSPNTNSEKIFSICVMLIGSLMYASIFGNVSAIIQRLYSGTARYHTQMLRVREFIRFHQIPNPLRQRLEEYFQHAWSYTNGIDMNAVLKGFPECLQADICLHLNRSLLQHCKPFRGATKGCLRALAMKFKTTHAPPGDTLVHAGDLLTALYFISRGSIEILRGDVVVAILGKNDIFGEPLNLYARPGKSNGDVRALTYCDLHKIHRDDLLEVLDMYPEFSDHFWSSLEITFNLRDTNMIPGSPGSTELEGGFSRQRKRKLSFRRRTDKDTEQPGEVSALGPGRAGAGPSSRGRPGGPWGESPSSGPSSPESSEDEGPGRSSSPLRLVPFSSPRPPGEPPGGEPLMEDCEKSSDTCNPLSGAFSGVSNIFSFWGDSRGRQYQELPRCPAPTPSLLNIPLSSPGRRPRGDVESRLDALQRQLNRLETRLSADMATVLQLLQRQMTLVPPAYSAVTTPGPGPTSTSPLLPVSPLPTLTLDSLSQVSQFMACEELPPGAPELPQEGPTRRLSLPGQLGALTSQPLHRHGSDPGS
row,Compound,"hERG current change (%, negative = inhibition) at 1uM [%]"
1,COc1ccc(C(=O)CSc2nc3ccccc3n2CC(=O)NC(C)(C)C)cc1,14.9
2,O=C(NCc1ccc(Cl)cc1)C(=O)NCC1CCCN1S(=O)(=O)c1cccs1 (centres unmarked),-0.28
3,CN(C(=O)c1ccco1)C1(c2ccccc2Cl)CCCCC1=O (centres unmarked),13.1
4,O=C(Nc1ccc2c(c1)OCO2)C1CCCN(S(=O)(=O)Cc2ccccc2)C1 (centres unmarked),7.32
5,CC(=O)c1ccc(NC(=O)CSc2ccc(-c3ccc4c(c3)OCO4)nn2)cc1,5.75
6,O=C1OC(CCl)CN1Cc1c(Cl)cccc1Cl (centres unmarked),4.61
7,O=C(NC1CCCC1)C1CCCN(S(=O)(=O)c2ccc(F)cc2)C1 (centres unmarked),15.3
8,FC(F)(F)c1cc(N2CCN(Cc3ccccc3)CC2)c2ccccc2n1,11.8
9,N#C[C@@H]1[C@@H]2C(=O)N(c3ccc4c(c3)OCCO4)C(=O)[C@@H]2C2c3ccccc3C=CN21 (some centres unmarked),-3.16
10,Cc1ccc(NC(=O)c2cc(-c3ccc(C)o3)nc3ccccc23)nc1,11.8
11,Cc1ccc(/C=N\NC(=O)COc2ccc(C)cc2[N+](=O)[O-])cc1,13.1
12,CCOC(=O)C1CCN(C(=O)COc2ccc(N(C)S(=O)(=O)c3ccc(OCC)cc3)cc2)CC1,11.1
13,COc1ccc(CNCC2COc3ccccc3O2)cc1.O=C(O)C(=O)O (centres unmarked),4.11
14,CCOC(=O)c1c(NC(=O)C2C3C=CC(C3)C2C(=O)O)sc2c1CCCC2 (centres unmarked),8.1
15,CCCOc1cccc(-c2cc(C(=O)NN)c3ccccc3n2)c1,4.13
16,O=C(CN1C(=O)COc2ccccc2C1=O)c1ccc2c(c1)OCCO2,12.5
17,Oc1ccc(-c2cc(-c3ccc(O)cc3)nc(-c3ccccc3)n2)cc1,12.1
18,COc1ccccc1NC(=O)NC1(C(=O)NCC2CCCO2)CCCCC1 (centres unmarked),13.6
19,CC1(C)CCC(=O)N2CC[C@H]3C[C@H](OC(=O)Nc4ccc(Br)cc4)C[C@@H]1[C@H]32,9.77
20,CCOC(=O)C1CCCCN1C(=O)CCc1c(C)nc2cc(-c3ccccc3)nn2c1C (centres unmarked),-14
21,O=C(Nc1cccc(Cl)c1)Nc1cc(S(=O)(=O)N2CCOCC2)ccc1N1CCCC1,9.33
22,NCCCNC(=O)Cn1c(=O)c2c3c(sc2n(Cc2ccccc2)c1=O)CCCC3,14.1
23,Cc1ccc(NC(=O)C2CC(=O)N/C(=N/N=C/c3ccco3)S2)cc1C (centres unmarked),-2.7
24,COc1ccc(S(=O)(=O)N2CCN(C(=O)CN3C(=O)NC4(CCCC4)C3=O)CC2)cc1,13.9
25,N/C(=N\OC(=O)c1ccco1)c1ccc(Cl)cc1,9.87
26,COc1cc(C)c(C(=O)Oc2cc(C)c(C(=O)O)c(O)c2C)c(O)c1C,5.04
27,COc1ccc(-c2nc(CSCC(=O)N3CCN(C)CC3)c(C)o2)cc1OC,11.9

row,Compound,"hERG current change (%, negative = inhibition) at 1uM [%]"
1,COc1ccccc1C1C(C(N)=O)=C(C)Nc2nc(-c3ccc(Cl)cc3)nn21 (centres unmarked),1.88
2,COc1ccc(NC2=C3CCCC=C3N(c3ccc(OC)cc3)C2=O)cc1,9.41
3,COc1ccccc1NC(=O)c1ccc(N2CC3CC(C2)c2cccc(=O)n2C3)c(NC(=O)c2cccnc2)c1 (centres unmarked),8.07
4,O=c1c2c(nc3cc(-c4cccc(Cl)c4)[nH]n13)CCCC2,19.6
5,CN(c1ccc(OCC(=O)N2CCN(c3ccc(F)cc3)CC2)cc1)S(=O)(=O)c1cccs1,-26.4
6,O=C(Nc1cc(C(F)(F)F)ccc1F)C1CCC1,2.54
7,Cn1cc(-c2nnnn2-c2ccccc2)c(=O)c2ccccc21,1.73
8,Cn1c(CCC(=O)Nc2ccccc2F)nnc1SCC(=O)Nc1ccccc1Cl,9.27
9,COc1ccc(CCNC(=O)c2cc(-c3cc(Cl)cc(Cl)c3)oc2C)cc1,-10.6
10,COc1ccc2c(=O)c(-c3cnn(-c4ccccc4)c3)c(C)oc2c1,6.28
11,O=C(Nc1cccc(S(=O)(=O)N2CCOCC2)c1)c1cn(-c2ccccc2)nc1-c1ccccc1,4.82
12,O=C(N/N=C/c1cccnc1)C1CC1(c1ccccc1)c1ccccc1 (centres unmarked),3.24
13,C=CCNC(=O)c1ccc(C2SCC(=O)N2Cc2ccccc2)cc1 (centres unmarked),6.29
14,CN(Cc1ccccc1NCC(=O)Nc1ccccc1C#N)C1CCCCC1,17.3
15,CCn1c(=N)n(CC(O)COc2cccc(C)c2)c2ccccc21.Cl (centres unmarked),-16
16,Cc1cc(C(=O)N2CCc3ccccc32)n(-c2ccccc2)n1,8.48
17,Cn1c(CN2CCCCC2)nc2cc(NC(=O)c3ccccc3Cl)ccc21,11.2
18,CCN(CC)C(=O)c1ccc(C(=O)Nc2ccc(F)cc2)cc1,10.3
19,CCN(CC)S(=O)(=O)c1cccc(C(=O)N[C@H](C(=O)NCc2ccccc2F)C(C)C)c1,8.99
20,COC(=O)c1ccc(S(=O)(=O)N2CCC(O)CC2)n1C,3.92
21,Cc1ccc(CNc2oc(-c3ccco3)nc2S(=O)(=O)c2ccccc2)cc1,-13.5
22,Cc1noc(C)c1C(=O)N1CCN(c2ccccc2O)CC1,16
23,Cc1ccc(N(C(=O)C2CCC(=O)N2)C2(C(=O)NC3CCCCC3)CCCCC2)cc1 (centres unmarked),2.06
24,CCc1ccc(Oc2coc3cc(O)ccc3c2=O)cc1,12.4
25,CC(NC(=O)c1cccs1)c1nnc(SCc2ccc(Cl)cc2Cl)n1C (centres unmarked),-9.16
26,O=C(NCc1ccc(Cl)cc1)c1n[nH]c([N+](=O)[O-])c1Cl,0.933
